Results on 62 molecules are retold here after PubChem BioAssay AID1508623 (National Center for Advancing Translational Sciences (NCATS), 2021).

SMILES strings stand for the structures. Out of some 48,000 compounds screened, about 450 (0.94%) were called active. Inconclusive results (about 19%) are left out. Calls come from the whole dose curve; as a rule, active = well fitted inhibition curve with a large enough effect; inconclusive = small, poorly fitted or top-dose-only effect; inactive = no such curve, though single readings can be large or run the other way. This is one part of the list.

The nature of the assay: Primary qHTS for Identification of Small Molecule Inhibitors of Huntingtin Promoter Activity. Note: nearly all actives have a fitted effect of over 50% in size. To be noted: HEK293 HTT promoter firefly luciferase reporter (activity 0% = vehicle and -100% = no light), 24 h; series mostly up to 57.5 µM; activity change, negative = inhibition: at the top concentration. Summed up: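 HEK293 cells carrying firefly luciferase reporters were seeded at 2,500 per well in Opti-MEM and cultured for 24 h. They were then treated with compounds at up to 57.5 uM final for 24 h at 37 degrees C before Dual-Glo luminescence readout.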
In general terms: Quantitative high-throughput screening tests each substance at several concentrations.
In the case of `CCOC(=O)c1ccc(NC(=O)C2CC(=O)NC(=Nc3ccc(C)c(C)c3)S2)cc1` (configuration not stated), the “activity change, negative = inhibition” value was inactive: -28.2%.

Take `COc1ccccc1CNC(=O)Cn1c(=O)oc2cc(S(=O)(=O)N3CCCC3)ccc21`: the “activity change, negative = inhibition” value is inactive: -39.7%.

Turning to `CCCCN(C)CCNC(=O)c1ccc(Cn2c(=O)[nH]c3cc(OC)c(OC)cc3c2=O)cc1`, the “activity change, negative = inhibition” value was inactive: -2.52%.

On to `COc1cc(-c2nc(S(=O)(=O)c3ccc(Br)cc3)c(N3CCOCC3)o2)cc(OC)c1OC`, for which the “activity change, negative = inhibition” value is inactive: -6.52%.

Consider `COc1ccc(Br)cc1C(=O)Nc1cccc2ccc(C)nc12`, for which the “activity change, negative = inhibition” value was inactive: -12.6%.

In the case of `CCc1nc2nc(C)cc(Nc3cc(Cl)ccc3C)n2n1`, the “activity change, negative = inhibition” value was inactive: -29.5%.

Turning to `CCc1ccc(CNC(=O)c2ccc3c(Cl)c4c(nc3c2)CCCC4)cc1`, the “activity change, negative = inhibition” value is inactive: -2.45%.

In the case of `Cc1cc(N2CCN(c3cccc(C)c3C)CC2)n2cnnc2n1`, the “activity change, negative = inhibition” value is inactive: -6.82%.

As for `CCOC(=O)c1cnn(-c2ccc(C(=O)Nc3ccc(OC(F)(F)F)cc3)cc2)c1N`, the “activity change, negative = inhibition” value is inactive: -14.9%.

Turning to `CC(=O)Nc1ccc(NC(=O)C2CCCN(S(=O)(=O)c3ccc4c(c3)CCCC(=O)N4)C2)cc1` (configuration not stated), the “activity change, negative = inhibition” value is inactive: -0.281%.

For `COc1ccc(Cl)cc1NC(=O)Cn1ncc2c3ccccc3n(C)c2c1=O`, the “activity change, negative = inhibition” value was inactive: -23.4%.

As to `CCCN(Cc1cccs1)C(=O)Nc1cc(Cl)ccc1C`, the “activity change, negative = inhibition” value is inactive: 3.82%.

In the case of `Cc1nn(CC(=O)NCc2ccc(F)cc2)c2ccccc12`, the “activity change, negative = inhibition” value was inactive: -0.323%.

As to `CCCCCCCCCCCCCCNCCO`, the “activity change, negative = inhibition” value is inactive: -9.17%.

Consider `Cc1ccc2[nH]c3c(=O)n(CC(=O)NCc4ccco4)ncc3c2c1`, for which the “activity change, negative = inhibition” value was inactive: 0.892%.

As to `O=C(NCc1ccc(Cl)cc1)c1ccc2c(Cl)c3c(nc2c1)CCCC3`, the “activity change, negative = inhibition” value was inactive: -5.99%.

In the case of `Cc1ccc(C)c(N2CCN(C(=O)CCC(=O)Nc3ccc4nc(N5CCCCC5)cc(C)c4c3)CC2)c1`, the “activity change, negative = inhibition” value is inactive: -24.5%.

With `Cc1ccc(OCCSc2nnc(-c3cccs3)o2)cc1Cl`, the activity change, negative = inhibition was inactive: -19.8% [at 11.5 µM].

As for `CCOC(=O)c1cccc(NC(=O)CCCn2nc(C)c3c(C)n(-c4ccccc4)nc3c2=O)c1`, the “activity change, negative = inhibition” value was inactive: 5.67%.

`CC(=O)Nc1ccc(NC(=O)C2CCN(c3c(NC(C)=O)c(C)nn3-c3ccccc3)CC2)cc1`: the “activity change, negative = inhibition” value is inactive: 33.6%.

Turning to `CCOC(=O)c1ccc2nc(C)cc(Nc3cccc(C(=O)O)c3)c2c1`, the “activity change, negative = inhibition” value was inactive: -5.38%.

`COc1ccc(Cl)cc1-n1nnc(-c2nc(-c3ccccc3)no2)c1C`: the “activity change, negative = inhibition” value is inactive: 9.45%.

With `Cn1c(SCC(=O)Nc2ccccc2)nnc1-c1ccccc1`, the “activity change, negative = inhibition” value is inactive: -11.6%.

In the case of `COc1ccc(-c2nc3cc(C(C)C)ccc3o2)cc1NC(=O)c1ccccc1[N+](=O)[O-]`, the “activity change, negative = inhibition” value was inactive: -11.9%.

For `CCOc1ccccc1CNC(=O)CCn1c(=O)c2cccn2c2ccc(F)cc21`, the “activity change, negative = inhibition” value was inactive: -9.33%.

Regarding `COc1ccc2c(c1)c(=O)c(C(=O)c1ccc(C)c(C)c1)cn2CC(=O)Nc1ccc2c(c1)OCCO2`, the “activity change, negative = inhibition” value was inactive: -7.26%.

Consider `Cc1ccc(CNc2nc(-c3ccco3)nn2S(C)(=O)=O)cc1`, for which the “activity change, negative = inhibition” value is inactive: 62.7%.

As to `Cc1ccc(Cn2c(CN3CCC(C(=O)NCc4ccccc4C)CC3)cc3ccccc32)cc1`, the “activity change, negative = inhibition” value was inactive: -10.5%.

As for `COc1ccc(NC(=O)C2COc3ccccc3C2)cc1Cl` (configuration not stated), the “activity change, negative = inhibition” value was inactive: -12.6%.

In the case of `Cc1ccc2c(n1)Oc1ccc(C(C)C(=O)OCC(=O)N(C)C)cc1C2` (configuration not stated), the activity change, negative = inhibition entry is “inactive”.

On to `Cc1ccc(NC(=O)CCOc2ccccc2)cc1`, for which the “activity change, negative = inhibition” value was inactive: 47.7%.

Take `COc1ccccc1N1CCN(C(=O)Cn2c(=O)n3nc(-c4ccc(C)cc4)nc3c3ccccc32)CC1`: the “activity change, negative = inhibition” value is inactive: 15.4%.

As to `COc1ccc(NC(=O)c2cccc(N3CCCS3(=O)=O)c2)cc1OC`, the “activity change, negative = inhibition” value is inactive: 42.8%.

Take `Cc1nc(N2CCCC2)ncc1C(=O)NCc1cccc(Cl)c1`: the “activity change, negative = inhibition” value is inactive: -20.2%.

On to `CCc1ccc(NC(=O)CSc2nc3ccccc3nc2Cc2ccc(C)cc2)cc1`, for which the “activity change, negative = inhibition” value was inactive: 0.933%.

Take `COc1ccc(C)cc1NC(=O)CN1c2ccccc2S(=O)(=O)c2ccccc21`: the “activity change, negative = inhibition” value is inactive: -38.8%.

As to `Cc1nnc(N2C(=O)c3oc4ccccc4c(=O)c3C2c2ccc(C(C)(C)C)cc2)s1` (configuration not stated), the “activity change, negative = inhibition” value is inactive: -13.1%.

In the case of `COCCNC(=O)c1ccc2c(=O)n(CCc3ccccc3)c(SCC(=O)CC(=O)OC)nc2c1`, the “activity change, negative = inhibition” value is inactive: -16.3%.

Turning to `CCC(C)NC(=O)CSc1nc2cc3c(cc2c(=O)n1CCCC(=O)NCCc1ccc(OC)c(OC)c1)OCO3` (configuration not stated), the “activity change, negative = inhibition” value is inactive: -19.2%.

Take `COc1cccc(-c2nc(S(=O)(=O)c3ccccc3)c(N3CCCCC3)o2)c1`: the “activity change, negative = inhibition” value was inactive: 1.84%.

Take `Cc1cccc(OCCSc2nc3ccccc3n2CC(=O)N2CCOCC2)c1`: the “activity change, negative = inhibition” value is inactive: -17.1%.

Regarding `COc1ccccc1CNC(=O)c1ccc(CS(=O)(=O)c2c(Cl)cccc2Cl)o1`, the “activity change, negative = inhibition” value was inactive: -7.62%.

Turning to `CC(=O)OCC1=C(C(=O)O)N2C(=O)[C@@H](NC(=O)CSc3ccncc3)[C@H]2SC1`, the “activity change, negative = inhibition” value was inactive: -3.26%.

As for `CCCn1c(=O)c2sccc2n2c(CCCC(=O)N3CCN(c4ccccc4OC)CC3)nnc12`, the “activity change, negative = inhibition” value is inactive: -8.46%.

`Cc1ccc2c(=O)cc(C(=O)Nc3sc4c(c3C(=O)NCc3ccco3)CCC4)oc2c1`: the activity change, negative = inhibition is inactive: -2.72% [at 11.5 µM].

In the case of `NC1CCC(Nc2nc(Nc3ccc(C(=O)N4CCCCC4)cc3)c3ncn(-c4cccc(F)c4)c3n2)CC1` (configuration not stated), the “activity change, negative = inhibition” value is inactive: 4.05%.

Take `O=C(NCc1ccccc1F)C1CCN(c2nnc(-n3cccc3)s2)CC1`: the “activity change, negative = inhibition” value was inactive: -14.3%.

`COc1ccccc1NC(=O)CSc1nnc(-c2ccccc2C)o1`: the “activity change, negative = inhibition” value is inactive: 60.3%.

For `COc1cc(NC(=O)CCc2c(C)nn(-c3ccc(N4CCOCC4)nn3)c2C)cc(OC)c1OC`, the “activity change, negative = inhibition” value is inactive: -5.82%.

For `COc1ccc2c(c1)c(=O)c(C(=O)c1ccccc1)cn2CC(=O)Nc1ccc2c(c1)OCCO2`, the “activity change, negative = inhibition” value was inactive: -14.2%.

For the molecule `O=C(NCC(c1ccc(Cl)cc1)N1CCOCC1)c1ccccc1F` (configuration not stated), the “activity change, negative = inhibition” value was inactive: -12%.

Regarding `CCS(=O)(=O)CCn1c([N+](=O)[O-])cnc1C`, the “activity change, negative = inhibition” value is inactive: 1.11%.

For `COc1cccc(C2CC(=O)Nc3c2c(=O)[nH]c2nc4ccccc4n32)c1` (configuration not stated), the “activity change, negative = inhibition” value is inactive: -5.34%.

`O=C1CCc2cc(OCCCCc3nnnn3C3CCCCC3)ccc2N1`: the activity change, negative = inhibition result is “inactive”.

Consider `O=C(COc1ccc([N+](=O)[O-])cc1)Nc1nc2c(s1)CCCC2`, for which the “activity change, negative = inhibition” value was inactive: -13%.

`CCc1ccc(NC(=O)Cn2c(=O)n(CCCCC(=O)NCCc3ccc(Cl)cc3)c(=O)c3ccccc32)cc1`: the “activity change, negative = inhibition” value is inactive: -2.66%.

As to `Cc1ccc2ncc(C(=O)Nc3ccc(OC(F)(F)F)cc3)c(=O)n2c1`, the “activity change, negative = inhibition” value was inactive: -23%.

As for `O=c1[nH]c2ccc(NCc3ccc(-c4ccc(Br)cc4)o3)cc2[nH]1`, the “activity change, negative = inhibition” value is inactive: -24.6%.

As for `COc1cc(OC)cc(-c2nc(-c3ccc4c(c3)[nH]c(=O)n4C)no2)c1`, the “activity change, negative = inhibition” value was inactive: -6.85%.

Take `Cc1ccc(-c2cc(C(=O)NCc3ccccc3Cl)c3ccccc3n2)cc1C`: the “activity change, negative = inhibition” value is inactive: -6.9%.

As to `O=C(Nc1ccccc1C(F)(F)F)n1ncc2cc(Cl)ccc21`, the “activity change, negative = inhibition” value was inactive: -3.21%.

Consider `COc1ccc2cc3c(N)nn(C(=O)c4ccc(OC)c(OC)c4)c3nc2c1`, for which the “activity change, negative = inhibition” value was inactive: 7.15%.
